Counter-ions that a name gives are not always drawn. ± gives the standard deviation of the averaged measurements. The full ranking holds about 1,300 compounds; the median of “normalised cell viability” is about 1, and the lowest 2% start at about 0.15. The list shows a part of the results.
Tested on: V-C8 + BRCA2 (BRCA2-proficient hamster cells)
Assay: normalised cell viability (fraction of plate median); higher = more viable cells (less toxic)
Settings: 5 µM
Method in brief: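 BRCA2-deficient hamster V-C8 cells and BRCA2-restored V-C8 cells were plated in 96-well plates, and library drugs were added 24 h later at 5 μM in 100 μl medium. Exposure lasted 3 days in screen 1 and 6 days in screen 2, next to solvent-only wells. Viability was then read by resazurin assay, median-plate normalised and averaged across triplicate wells.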

SMILES | normalised cell viability (treatment time: 3 days) | normalised cell viability (treatment time: 6 days)
CC(Cc1ccccc1)NCCC(c1ccccc1)c1ccccc1 (stereo unspecified) [Prenylamine lactate] | 0.953 ± 0.07 | 0.886 ± 0.028
CC(=O)NC1CCSC1=O (racemic) [N-Acetyl-DL-homocysteine Thiolactone] | 1.05 ± 0.096 | 1.06 ± 0.11
NC(=O)C[S+]([O-])C(c1ccccc1)c1ccccc1 (stereo unspecified) [Modafinil] | 1.05 ± 0.1 | 1.07 ± 0.069
Cc1cccc(C)c1NC1=NCCCS1 [Xylazine] | 1.05 ± 0.046 | 0.973 ± 0.029
O=P1(NCCCl)OCCCN1CCCl (stereo unspecified) [Ifosfamide] | 1 ± 0.021 | 1 ± 0.032
CC(C)c1c(CN(C)C(C)Cc2ccccc2)n(C)n(-c2ccccc2)c1=O (stereo unspecified) [Famprofazone] | 1 ± 0.079 | 1.08 ± 0.035
C=C(C)[C@@H]1[C@H]2OC(=O)[C@@H]1[C@]1(O)C[C@H]3O[C@]34C(=O)O[C@H]2[C@]14C [Picrotoxinin] | 1.13 ± 0.15 | 1.021 ± 0.0072
COc1cc2c(cc1OC)C(C)NCC2 (stereo unspecified) | 1.01 ± 0.033 | 1.03 ± 0.042
NC(=O)CN1CCCC1=O [Piracetam] | 1.05 ± 0.076 | 1.02 ± 0.061
CC(=O)OCC(=O)[C@H]1CC[C@H]2[C@@H]3CC[C@H]4C[C@H](O)CC[C@]4(C)[C@H]3C(=O)C[C@]12C [Alfadolone acetate] | 1.06 ± 0.031 | 0.9646 ± 0.0091
CC(=O)OCC1=C(C(=O)O)N2C(=O)[C@@H](N)[C@H]2SC1 [Cephalosporanic acid, 7-amino] | 1.02 ± 0.013 | 1.13 ± 0.051
CO[C@]12C[C@@H](COC(=O)c3cncc(Br)c3)CN(C)[C@@H]1Cc1cn(C)c3cccc2c13 [Nicergoline] | 0.81 ± 0.019 | 0.926 ± 0.01
C[N+]12CCC(CC1)C(OC(=O)C(O)(c1ccccc1)c1ccccc1)C2 (stereo unspecified) [Clidinium bromide] | 1.018 ± 0.0066 | 1.01 ± 0.061
C[C@@]12N[C@@H](Cc3ccccc31)c1ccccc12 [(-)-MK 801 hydrogen maleate] | 0.997 ± 0.018 | 1.02 ± 0.1
C[C@]12Cc3c[nH]nc3C[C@@H]1CC[C@@H]1[C@@H]2CC[C@@]2(C)[C@H]1CC[C@]2(C)O [Stanozolol] | 1.04 ± 0.039 | 0.9666 ± 0.0087
CC(C)C[C@H](CN)CC(=O)O [Pregabalin] | 1.007 ± 0.0072 | 1.04 ± 0.075
CC(C)(C)NCC(O)c1ccccc1Cl (stereo unspecified) [Tulobuterol] | 1.033 ± 0.0099 | 1.02 ± 0.018
COc1cc([C@@H]2c3cc4c(cc3[C@H](O)[C@H]3COC(=O)[C@H]23)OCO4)cc(OC)c1OC [Podophyllotoxin] | 0.143 ± 0.0046 | 0.136 ± 0.016
CCNC1(c2cccs2)CCCCC1=O (stereo unspecified) [Tiletamine hydrochloride] | 1.07 ± 0.04 | 0.997 ± 0.024
C[C@@H]1CC[C@H]2[C@@H](C)C(=O)O[C@@H]3O[C@@]4(C)CC[C@@H]1[C@]32OO4 [Artemisinin] | 0.794 ± 0.024 | 0.87 ± 0.095
CCC1(c2cccc(O)c2)CCCCN(C)C1 (stereo unspecified) [Meptazinol hydrochloride] | 1.06 ± 0.031 | 1.06 ± 0.043
CCN(C(C)=O)c1cccc(-c2ccnc3c(C#N)cnn23)c1 [Zaleplon] | 1.03 ± 0.018 | 0.987 ± 0.083
NCCc1c[nH]c2ccc(O)cc12 [Serotonin hydrochloride] | 1.06 ± 0.04 | 1.05 ± 0.07

SMILES | normalised cell viability (treatment time: 3 days) | normalised cell viability (treatment time: 6 days)
CCC(COC(=O)c1cc(OC)c(OC)c(OC)c1)(c1ccccc1)N(C)C (stereo unspecified) [Trimebutine] | 1.19 ± 0.048 | 1.23 ± 0.047
COc1ccc(Cc2nccc3cc(OC)c(OC)cc23)cc1OC [Papaverine hydrochloride] | 0.793 ± 0.032 | 0.807 ± 0.095
CCC1(CC)C(=O)C=CNC1=O [Pyrithyldione] | 1.07 ± 0.09 | 0.962 ± 0.023
CC(C)(C)NCC(O)c1cc(Cl)c(N)c(Cl)c1 (stereo unspecified) [Clenbuterol hydrochloride] | 1.15 ± 0.022 | 1.02 ± 0.029
Fc1ccc(C(OCCN2CCN(CCCc3ccccc3)CC2)c2ccc(F)cc2)cc1 | 0.18 ± 0.0028 | 0.191 ± 0.0064
COc1ccc(CCN2CCC(Nc3nc4ccccc4n3Cc3ccc(F)cc3)CC2)cc1 [Astemizole] | 0.118 ± 0.0065 | 0.102 ± 0.0063
CC(=O)O[C@H]1C[C@H](O[C@H]2[C@@H](O)C[C@H](O[C@H]3[C@@H](O)C[C@H](O[C@H]4CC[C@@]5(C)[C@H](CC[C@@H]6[C@@H]5C[C@@H](O)[C@]5(C)[C@@H](C7=CC(=O)OC7)CC[C@]65O)C4)O[C@@H]3C)O[C@@H]2C)O[C@H](C)[C@H]1O[C@@H]1O[C@H](CO)[C@@H](O)[C@H](O)[C@H]1O [Lanatoside C] | 1.13 ± 0.13 | 0.854 ± 0.077
Oc1cc(Cl)ccc1Oc1ccc(Cl)cc1Cl [Triclosan] | 0.941 ± 0.07 | 1.07 ± 0.028
C[N+]1([O-])[C@@H]2C[C@@H](OC(=O)[C@H](CO)c3ccccc3)C[C@H]1[C@@H]1O[C@@H]12 (stereo partly specified) [Scopolamin-N-oxide hydrobromide] | 0.94 ± 0.04 | 1 ± 0.057
C[C@]12N[C@H](Cc3ccccc31)c1ccccc12 [Dizocilpine maleate] | 1.06 ± 0.074 | 1.11 ± 0.13
CCN(CC)C(C)C(=O)c1ccccc1 (stereo unspecified) [Amfepramone hydrochloride] | 1.17 ± 0.066 | 1.11 ± 0.056
O[C@@H]1CCCC[C@H]1N1CCC(c2ccccc2)CC1 [L(-)-vesamicol hydrochloride] | 1.04 ± 0.061 | 1.03 ± 0.073
C[C@]12CC[C@@H]3c4ccc(OC(=O)N(CCCl)CCCl)cc4CC[C@H]3[C@@H]1CC[C@@H]2O [Estramustine] | 0.225 ± 0.0075 | 0.243 ± 0.029
O=[N+]([O-])c1cc([As](=O)(O)O)ccc1O [Roxarsone] | 1.01 ± 0.034 | 0.879 ± 0.17
CCC1(c2ccc(N)cc2)CCC(=O)NC1=O (stereo unspecified) [Glutethimide, para-amino] | 0.996 ± 0.046 | 0.935 ± 0.022
CC[C@@]1([C@@H]2O[C@@H]([C@H]3O[C@@](O)(CO)[C@H](C)C[C@@H]3C)C[C@@H]2C)CC[C@H]([C@]2(C)CC[C@]3(C[C@H](O)[C@@H](C)[C@@H]([C@@H](C)[C@@H](OC)[C@H](C)C(=O)O)O3)O2)O1 [Monensin sodium salt] | 0.219 ± 0.0038 | 0.175 ± 0.011
CCN(C)C(=O)Oc1cccc([C@H](C)N(C)C)c1 [Rivastigmine] | 1.06 ± 0.085 | 0.714 ± 0.49
CN(C)C(=O)Oc1cc(OC(=O)N(C)C)cc(C(O)CNC(C)(C)C)c1 (stereo unspecified) [Bambuterol hydrochloride] | 1.04 ± 0.011 | 1.04 ± 0.066
CCn1cc(C(=O)O)c(=O)c2cc3c(cc21)OCO3 [Oxolinic acid] | 0.983 ± 0.026 | 1.01 ± 0.033
C[C@]12CC[C@H](O)C[C@@H]1CC[C@@H]1[C@@H]2CC[C@]2(C)C(=O)CC[C@@H]12 [Epiandrosterone] | 1 ± 0.066 | 0.984 ± 0.023
NCC(O)c1ccc(O)cc1 (racemic) [(+,-)-Octopamine hydrochloride] | 1.04 ± 0.05 | 0.947 ± 0.038
CN1[C@@H]2CC[C@H]1C[C@@H](OC1c3ccccc3CCc3ccccc31)C2 [Deptropine citrate] | 0.931 ± 0.016 | 0.869 ± 0.065
CCCC(C)(COC(N)=O)COC(=O)NC(C)C (stereo unspecified) [Carisoprodol] | 0.992 ± 0.042 | 1.09 ± 0.04

SMILES | normalised cell viability (treatment time: 3 days) | normalised cell viability (treatment time: 6 days)
CCC1(C)CC(=O)NC(=O)C1 [Bemegride] | 0.959 ± 0.073 | 0.969 ± 0.068
C[N+]1(C)CCCC(OC(=O)C(O)(c2ccccc2)c2ccccc2)C1 (stereo unspecified) [Mepenzolate bromide] | 1 ± 0.038 | 1.05 ± 0.032
OC(c1ccccc1)(c1ccccc1)C1CCNCC1 [Azacyclonol] | 0.985 ± 0.041 | 1.03 ± 0.042
NC(=O)OCCCc1ccccc1 [Phenprobamate] | 1 ± 0.086 | 1.06 ± 0.035
C=CCC1(CC(C)C)C(=O)NC(=O)NC1=O [Butalbital] | 1.14 ± 0.098 | 1.04 ± 0.062
O=C(CCCN1CCC(n2c(=O)[nH]c3ccccc32)CC1)c1ccc(F)cc1 [Benperidol] | 1.012 ± 0.0052 | 1.04 ± 0.024
C[C@@H]1CN([C@H]2CC[C@](C#N)(c3ccc(F)cc3)CC2)CC[C@]1(C(=O)O)c1ccccc1 [Levocabastine hydrochloride] | 1.05 ± 0.013 | 1.05 ± 0.042
COc1ccc(OC)c(C(O)C(C)N)c1 (stereo unspecified) [Methoxamine hydrochloride] | 1.01 ± 0.02 | 0.995 ± 0.044
CCC(=O)O[C@H]1CC[C@H]2[C@@H]3CCC4=CC(=O)CC[C@]4(C)[C@H]3CC[C@]12C [Testosterone propionate] | 0.906 ± 0.085 | 1 ± 0.1
C[C@]12COC(=O)C[C@@H]1CC[C@@H]1[C@@H]2CC[C@@]2(C)[C@H]1CC[C@]2(C)O [Oxandrolone] | 1.1 ± 0.067 | 1.08 ± 0.043
O=P1(N(CCCl)CCCl)NCCCO1 (stereo unspecified) [Cyclophosphamide] | 1.07 ± 0.025 | 1.01 ± 0.027
CN1C(=O)CCS(=O)(=O)C1c1ccc(Cl)cc1 (stereo unspecified) [Chlormezanone] | 1.2 ± 0.17 | 1.03 ± 0.012
C[C@]12C/C(=C/O)C(=O)C[C@@H]1CC[C@@H]1[C@@H]2CC[C@@]2(C)[C@H]1CC[C@]2(C)O [Oxymetholone] | 1.1 ± 0.033 | 1.01 ± 0.049
CC(=O)[C@H]1CC[C@H]2[C@@H]3CC[C@H]4C[C@H](O)CC[C@]4(C)[C@H]3C(=O)C[C@]12C [Alfaxalone] | 1.07 ± 0.031 | 1.03 ± 0.051
C=C1C[C@@H]2[C@H](CC[C@]3(C)C(=O)CC[C@@H]23)[C@@]2(C)C=CC(=O)C=C12 [Exemestane] | 0.972 ± 0.11 | 0.975 ± 0.044
COc1ccc(C(CN(C)C)C2(O)CCCCC2)cc1 (stereo unspecified) [Venlafaxine] | 1.01 ± 0.061 | 0.755 ± 0.023
CNC(=O)Oc1ccc2c(c1)[C@]1(C)CCN(C)[C@@H]1N2C [Eserine sulfate, physostigmine sulfate] | 0.891 ± 0.018 | 0.91948 ± 0.00047
CN(C)C(=O)Oc1cccc([N+](C)(C)C)c1 [Neostigmine bromide] | 1.15 ± 0.06 | 1.03 ± 0.075
CC(C)(N)Cc1ccccc1 [Phentermine hydrochloride] | 1 ± 0.041 | 0.995 ± 0.023
CCNCC(O)c1cccc(O)c1 (stereo unspecified) [Etilefrine hydrochloride] | 0.953 ± 0.077 | 1.01 ± 0.036
CCC1=C[C@H]2CN3CCc4c([nH]c5ccccc45)[C@](C(=O)OC)(C2)[C@H]13 [Catharanthine] | 0.992 ± 0.023 | 1.03 ± 0.059
CC(C)C[C@H]1C(=O)N2CCC[C@H]2[C@]2(O)O[C@](NC(=O)[C@@H]3C=C4c5cccc6[nH]c(Br)c(c56)C[C@H]4N(C)C3)(C(C)C)C(=O)N12 [Bromocryptine mesylate] | 0.854 ± 0.021 | 0.862 ± 0.054

Reference: the supplement of paper PMC6609913
